According to PubChem BioAssay AID624417 (National Center for Advancing Translational Sciences (NCATS), 2012):
“And” between values parts separate entries of the source, which are not always exact repeats. Identical values can stand only once. Among all 410,000 compounds or so, about 6,400 (1.6%) were called active. This list was built around the results that the source calls inconclusive (neither active nor inactive); the mix of calls is not that of the screen. Calls follow the shape of the dose curve; as a rule, active = well fitted inhibition curve with a large enough effect; inconclusive = small, poorly fitted or top-dose-only effect; inactive = no such curve, though single readings can be large or run the other way. Potencies beside an inconclusive call are fits to weak or partial responses and may not hold up.

The compounds below were run against Glucagon-like peptide 1 receptor (Homo sapiens) (UniProt P43220) (assay: qHTS of GLP-1 Receptor Inverse Agonists (Inhibition Mode)). Details: HEK293 GLP-1R CRE-luciferase, luminescence, 24 h, GLP-1R form is constitutively active; activity change, negative = inhibition: at 38.3 µM (top of the series) unless noted.
UniProt P43220, sequence (P43220 whole entry, looked up): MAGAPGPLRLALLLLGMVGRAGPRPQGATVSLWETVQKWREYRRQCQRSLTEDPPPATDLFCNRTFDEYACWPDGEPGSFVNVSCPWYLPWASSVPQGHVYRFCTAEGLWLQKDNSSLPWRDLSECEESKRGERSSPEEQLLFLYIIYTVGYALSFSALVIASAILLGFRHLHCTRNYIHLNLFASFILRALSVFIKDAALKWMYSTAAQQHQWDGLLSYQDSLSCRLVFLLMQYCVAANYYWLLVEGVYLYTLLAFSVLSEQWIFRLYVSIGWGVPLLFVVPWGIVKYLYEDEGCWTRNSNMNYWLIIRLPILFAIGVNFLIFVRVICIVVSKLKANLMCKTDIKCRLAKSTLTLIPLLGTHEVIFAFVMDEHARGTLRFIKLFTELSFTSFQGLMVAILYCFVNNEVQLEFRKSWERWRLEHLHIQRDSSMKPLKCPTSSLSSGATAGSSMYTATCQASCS
In short: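 Constitutively active GLP-1R drives a cAMP-responsive luciferase in stably transfected HEK293 cells; test compounds are added after overnight (12 h) attachment and left 24 hr, and signal loss in luminescence marks inhibition.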
% is scaled to controls: 0 for no effect and ±100 for the full control effect; potency is read from the fitted curve at half-maximal effect; tags tell the direction and shape of the fitted curve.
Also: nearly all actives have a fitted effect of over 55% in size.

Potency, inconclusive:
COc1ccc(C(=O)Nc2ccc3ccccc3c2)cc1 3.98 µM [inhibitor, partial curve], O=C(COc1ccccc1)N1CCN=C1SCc1ccccc1F 10 µM [inhibitor, single point], CCCc1nc2ccccc2c(C(=O)N(CC)CC(=O)NCc2cccs2)c1CC 12.6 µM [inhibitor, partial curve, poor fit], C=CCCC1CN(CCCC)S(=O)(=O)c2c(F)cccc2O1 (centres undefined) 14.1 µM [inhibitor, partial curve, poor fit], CC(=O)NC1=NN(C(C)=O)C(C)(c2cccs2)S1 (centres undefined) 8.91 µM [inhibitor, partial curve, poor fit], Cc1ccc2cccc(NC(=O)C(C)(C)Oc3ccc(Br)cc3)c2n1 3.55 µM [inhibitor, single point], CCOc1ccc(NC(C)C(=O)N/N=C/c2cccs2)cc1 (centres undefined) 28.2 µM [inhibitor, single point], COc1ccc(-c2noc(CCC(=O)NCCCN3CCN(c4ccc(F)cc4)CC3)n2)cc1 12.6 µM [inhibitor, partial curve, poor fit], O=C(NC1CC1)c1ccc2c(c1)N(Cc1ccc(Cl)cc1)CCS2 1.41 µM [inhibitor, partial curve, poor fit], COc1ccc(OCCSc2nnc(-c3ccoc3C)n2C)cc1 28.2 µM [inhibitor, single point], CCN(Cc1ccccc1)C(=O)CN1C(=O)COc2ccc(S(=O)(=O)N3CCCCCC3)cc21 11.2 µM [inhibitor, partial curve, poor fit] and 8.91 µM [inhibitor, partial curve, poor fit], CCC1Oc2ccccc2N(CC(=O)N2CC(C)CC(C)C2)C1=O (centres undefined) 10 µM [inhibitor, single point], CCCC(=O)Nc1nc(-c2ccc3c(c2)OCCO3)cs1 28.2 µM [inhibitor, single point], S=C(NCCC1=CCCCC1)NCc1ccco1 31.6 µM [inhibitor, single point], O=C(Nc1cc(Cl)ccc1O)c1cc2n(n1)C(C(F)(F)F)CC(c1ccc3c(c1)OCO3)N2 (centres undefined) 2.24 µM [inhibitor, full curve], CC(C(=O)N1CCc2ccccc21)N(C)CC(=O)Nc1ccc(F)cc1 (centres undefined) 5.62 µM [inhibitor, full curve], Cc1ccc(S(=O)(=O)NN2C(=O)c3ccccc3NC2c2ccccc2)cc1 (centres undefined) 3.55 µM [inhibitor, partial curve, poor fit], COc1ccccc1Nc1c2c(nc3ccc(NC(=O)c4cccc(F)c4)cc13)CCCC2 20 µM [inhibitor, single point], Cc1occc1C(=O)N1CCC2(CCCN(Cc3ccc(F)c(F)c3)C2)C1 (centres undefined) 3.55 µM [inhibitor, partial curve, poor fit], O=C1C2CCCCN2C(=O)N1CCCCN1CCN(c2cccc(C(F)(F)F)c2)CC1 (centres undefined) 31.6 µM [inhibitor, single point], CN1OC[C@@H]2CN(Cc3ccc4c(c3)OCO4)[C@H](c3ccc(N4CCCCC4)cc3)C[C@@H]21 11.2 µM [inhibitor, partial curve, poor fit], CC1Cc2cc(-c3csc(NC(=O)Cc4ccccc4)n3)ccc2N1S(C)(=O)=O (centres undefined) 22.4 µM [inhibitor, single point], CCc1ccc(CNC(=O)C2CCN(C(=O)N3CC(CC)Oc4ccc(C)cc43)CC2)cc1 (centres undefined) 31.6 µM [inhibitor, partial curve, poor fit], O=C1NC[C@@H](c2ccccc2)OC(=O)[C@H](Cc2ccc(F)cc2)CC/C=C/C[C@H]1CC(=O)N(CCO)Cc1ccccc1 11.2 µM [inhibitor, single point], Cc1ccc(C)c(C(=O)c2ccccc2NC(=O)c2ccccn2)c1 4.47 µM [inhibitor, partial curve, poor fit], CC(=Nc1ccccc1O)c1sc2ccccc2c1O 12.6 µM [inhibitor, partial curve, poor fit], O=c1[nH]c(NCCO)nc2c1C1(CCCCC1)Cc1ccccc1-2 11.2 µM [inhibitor, partial curve, poor fit], CCOC(=O)N1CCN(C(=O)c2cc(COc3cccc(C(F)(F)F)c3)on2)CC1 28.2 µM [inhibitor, single point], CC(C)(C)c1ccc(C(=O)NNc2cc(Cl)cc(Cl)c2)cc1 11.2 µM [inhibitor, partial curve, poor fit], COc1ccccc1C(CNC(=O)c1ccc(NS(=O)(=O)c2ccc(F)c(C)c2)cc1)N1CCCC1 (centres undefined) 12.6 µM [inhibitor, single point], Cc1ccc(C(C)C)c(OC/C(O)=C(\C#N)c2nc3ccccc3[nH]2)c1 12.6 µM [inhibitor, single point], COc1ccc(OC)c(N(CC(=O)NC2CCCCCC2)S(=O)(=O)c2ccc(C)cc2)c1 20 µM [inhibitor, single point], Cc1onc(-c2ccccc2Cl)c1C(=O)N(C)C1CCCCC1 12.6 µM [inhibitor, single point], O=C(c1cc(-c2ccccc2)on1)N1CCN(Cc2ccc3c(c2)OCO3)CC1 28.2 µM [inhibitor, single point], COc1ccc(C(C(=O)Nc2ccc(C(C)C)cc2)N(Cc2ccco2)C(=O)CC2NC(=O)NC2=O)cc1 (centres undefined) 12.6 µM [inhibitor, single point], CCOC(=O)c1cnc2c(C(F)(F)F)cccc2c1Nc1cccc(C(=O)OC)c1 28.2 µM [inhibitor, single point], CCOc1ccc(NC(=O)CNS(=O)(=O)c2ccc(Br)s2)cc1 28.2 µM [inhibitor, single point], Cc1c(C(=O)NCc2cccc(C(F)(F)F)c2)sc(=O)n1Cc1ccc(F)cc1 28.2 µM [inhibitor, single point], O=C(NCC1COc2ccccc2O1)c1cc(S(=O)(=O)N2CCOCC2)ccc1F (centres undefined) 8.91 µM [inhibitor, partial curve, poor fit], COc1cccc(/C=C/c2ccc3ccccc3n2)c1OC(C)=O 8.91 µM [inhibitor, partial curve, poor fit], O=C(CN1CCOCC1)Nc1ncc(Cc2cccc(Cl)c2)s1 31.6 µM [inhibitor, single point], Cc1ccc2oc(Nc3nc(-c4ccccc4)cc(=O)[nH]3)nc2c1 0.501 µM [inhibitor, full curve, poor fit], CCOC(=O)c1sc2ccccc2c1S(=O)(=O)N1CCN(c2ccccc2)CC1 28.2 µM [inhibitor, single point], COc1ccc(CNC(=O)C2CCN(C(=O)c3ccc(-c4ccccc4)cc3)CC2)cc1 7.08 µM [inhibitor, partial curve, poor fit], O=C(NCCc1ccccc1)Nc1cccc(Cl)c1 11.2 µM [inhibitor, partial curve, poor fit], Cc1ccc(NC(=O)CN2C(=O)CCc3cc(S(=O)(=O)N4CCCCC4)ccc32)cc1N(C)C 10 µM [inhibitor, single point], Cc1csc(NC(=O)CSc2nnc(-c3ccoc3C)n2Cc2ccco2)n1 28.2 µM [inhibitor, single point], O=C(COc1ccc(Oc2ccccc2)cc1)NC1CCS(=O)(=O)C1 (centres undefined) 5.62 µM [inhibitor, partial curve, poor fit], COc1ccc(OCCN2CCC(C(=O)NC(c3ccc(F)cc3)c3ccc4ccccc4n3)CC2)cc1 (centres undefined) 11.2 µM [inhibitor, partial curve, poor fit], Cc1cccc(C(=O)Nc2ccccc2SCC2CSc3nc4ccccc4c(=O)n32)c1 (centres undefined) 2.24 µM [inhibitor, full curve, poor fit], COc1ccc(CNC(=O)c2c(Nc3ccccc3C)sc(C(=O)c3ccccc3)c2N)cc1 14.1 µM [inhibitor, single point]

Activity change, negative = inhibition, inactive:
CCOC(=O)C1CCN(C(=O)CCn2c(=O)oc3ccccc32)CC1 4.41%, CCOC(=O)C1(Cc2cccc(OC)c2)CCCN(Cc2cc(OC)c(O)c(OC)c2)C1 (centres undefined) -13.6%, COc1ccc(NC(=O)c2nc(SC)ncc2Cl)cc1 -13.6%, Cc1ccc(-c2csc(NC(=O)c3cccc(N4C(=O)CCC4=O)c3)n2)o1 -5.66%, CC(C)c1ccc(NC(=O)CSc2nc(=O)n(Cc3cccnc3)c3c2CCC3)cc1 7.06%, N#Cc1c(SCC(=O)O)nc(N2CCCCC2)c2c1CCCC2 -3.9%, CCOc1cc(NC(=S)NCCOC)c(OCC)cc1NC(=O)c1cccs1 -10%, COCCNC(=O)C1(C)CCCN(Cc2cccc(F)c2)C1 (centres undefined) -17.9%
